PubChem BioAssay AID624417 (National Center for Advancing Translational Sciences (NCATS), 2012)
The whole screen tested about 410,000 compounds, of which about 6,400 (1.6%) were called active. Inconclusive results, whose numbers are uncertain, are shown with a selection of clear calls. The call rests on the fitted dose curve; in most records, active means well fitted inhibition curve with a large enough effect; inconclusive means small, poorly fitted or top-dose-only effect; inactive means no such curve, though single readings can be large or run the other way. No potency is given beside an inconclusive call; the fits are too rough.

The molecules below were run against Glucagon-like peptide 1 receptor (Homo sapiens) (UniProt P43220) (assay: qHTS of GLP-1 Receptor Inverse Agonists (Inhibition Mode)). Settings: HEK293 GLP-1R CRE-luciferase, luminescence, 24 h, GLP-1R form is constitutively active; activity change, negative = inhibition: at 38.3 µM (top of the series) unless noted.
Sequence of UniProt P43220 (P43220 whole entry, looked up): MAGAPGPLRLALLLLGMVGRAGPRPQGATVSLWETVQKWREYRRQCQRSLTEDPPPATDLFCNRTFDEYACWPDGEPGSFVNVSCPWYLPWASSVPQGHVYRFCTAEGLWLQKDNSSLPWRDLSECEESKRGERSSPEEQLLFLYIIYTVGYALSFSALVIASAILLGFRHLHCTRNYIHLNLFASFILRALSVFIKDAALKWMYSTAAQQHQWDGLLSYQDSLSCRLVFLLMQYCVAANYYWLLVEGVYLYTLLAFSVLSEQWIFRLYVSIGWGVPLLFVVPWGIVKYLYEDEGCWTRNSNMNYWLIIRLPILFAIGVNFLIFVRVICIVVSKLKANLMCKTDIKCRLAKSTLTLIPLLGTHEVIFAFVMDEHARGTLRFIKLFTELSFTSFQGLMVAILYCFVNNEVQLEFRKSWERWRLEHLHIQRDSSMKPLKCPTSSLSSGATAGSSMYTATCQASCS
In short: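 Inverse agonists were sought by their lowering of basal cAMP reporter luciferase output in HEK293 cells stably carrying constitutively active human GLP-1R, after 24 h compound treatment.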
Further: nearly all actives have a fitted effect of over 55% in size.
On the % scale 0 is the no-effect control and ±100 the full control effect; potency means the concentration at half of the fitted maximal effect; tags describe the fitted curve by direction and shape.

Structure (SMILES) | Potency | activity change, negative = inhibition
N=C1SC(CC(=O)Nc2ccc([N+](=O)[O-])cc2)C(=O)N1c1ccccc1 (stereo not drawn) | inconclusive [inhibitor, single point] | –
COc1ccc(C(=O)N[C@H](C(=O)OCCCOC(=O)[C@@H](NC(=O)c2ccc(OC)cc2)C(C)C)C(C)C)cc1 | inconclusive [inhibitor, single point] | –
O=C(Nc1ccccc1C(=O)NCc1ccccc1)c1ccccc1 | – | inactive: 0%
O=S(=O)(NC1CCCCC1N1CCN(c2cccc(Cl)c2)CC1)c1ccccc1 (stereo not drawn) | inconclusive [inhibitor, single point] | –
Cn1cc([N+](=O)[O-])c(C(=O)Nc2cc(Oc3ccccc3)cc([N+](=O)[O-])c2)n1 | inconclusive [inhibitor, single point] | –
O=C(Nc1ccc2c(c1)OCO2)c1c(F)cccc1F | – | inactive: 7.4%
Cc1cccc(C(=O)NC(C(=O)Nc2cccc(S(=O)(=O)N3CCCC3)c2)C(C)C)c1 (stereo not drawn) | inconclusive [inhibitor, partial curve] | –
CC(=O)N1CCOc2cc(S(=O)(=O)NCc3ccc(C)cc3)c(Cl)cc21 | – | inactive: -14.1%
CC1CC(=NNC(=O)C2COc3ccccc3O2)CC(C)(C)C1 (stereo not drawn) | inconclusive [inhibitor, single point] | –
CC1=C(C(=O)N2CCCC(C(=O)c3cccc(C(F)(F)F)c3)C2)OCCO1 (stereo not drawn) | inconclusive [inhibitor, partial curve] | –
CC(=O)c1c(N2CCOCC2)nc2ccc(Cl)cc2c1-c1ccccc1 | inconclusive [inhibitor, single point] | –
CCCCCC(=O)NC(=S)Nc1ccc2oc(=O)ccc2c1 | – | inactive: -9.01%
COc1cccc(CCN2C(=O)C(=O)N([C@@H](CNCc3ccccc3)Cc3ccccc3F)C[C@@H]2C(C)(C)C)c1 | inconclusive [inhibitor, single point] | –
Cc1ccc(NC(=O)C2CCN(S(=O)(=O)c3c(C)noc3C)CC2)c(C)c1 | – | inactive: 7.49%
Cc1ccc(-c2sc(-c3ccccc3)nc2CC(=O)Nc2ccccc2F)cc1 | – | inactive: 9.58%
COc1ccc(C(=O)OCC(=O)c2ccc(S(=O)(=O)N3CCCCC3)cc2)c(OC)c1 | inconclusive [inhibitor, partial curve, poor fit] | –
Cc1ccccc1CS(=O)(=O)c1nnc([C@H](CC(C)C)NC(=O)OC(C)(C)C)o1 | – | inactive: 0%
CCOC(=O)C1(CC2CC2)CCN(C(=O)c2cc(OC)nc3ccccc23)CC1 | inconclusive [inhibitor, partial curve, poor fit] | –
CCCCc1nn2c(=O)cc(COC(=O)c3ccc(NC(=O)CCc4ccccc4)cc3)nc2s1 | – | inactive: 3.38%
O/N=C/c1cc(Br)cc(Br)c1OCc1ccccc1 | active: 10 µM | –
CCOCCCN1C(=O)c2[nH]nc(-c3ccccc3O)c2C1c1ccc(CC)cc1 (stereo not drawn) | inconclusive [inhibitor, single point] | –

Structure (SMILES) | Potency | activity change, negative = inhibition
COc1cccc(/C=N/Nc2ccc(C(=O)O)cc2)c1O | inconclusive [inhibitor, full curve, poor fit] | –
COc1cccc(/C=N/n2c(C3CCCCC3)n[nH]c2=S)c1OC | inconclusive [inhibitor, full curve] | –
O=C1C(Cl)=C(Oc2ccccc2)C(=O)c2ccccc21 | inconclusive [inhibitor, partial curve, poor fit] | –
CCn1c(CNc2ccc(C(=O)O)cc2)nc2ccccc21 | – | inactive: 3.86%
COc1cc(S(=O)(=O)Nc2ccccc2N2CCCCC2)ccc1NC(C)=O | inconclusive [inhibitor, partial curve, poor fit] | –
O=S(=O)(Nc1ccc(N2CCCCC2)cc1)c1ccc(F)c(F)c1 | inconclusive [inhibitor, single point] | –
O=C(Nc1ccc2nc(SCC(=O)N3CCCC3)sc2c1)c1cccc(Br)c1 | inconclusive [inhibitor, single point] | –
COc1ccc(NC(=S)N2CCC(C(=O)c3ccc(F)cc3)CC2)c(OC)c1 | inconclusive [inhibitor, partial curve] | –
CCCCCc1ccc(-c2cn(CCCOCc3ccccc3)nn2)cc1 | inconclusive [inhibitor, single point] | –
Cc1cc(NC(=O)COC(=O)c2ccccc2S(=O)(=O)N(C)c2ccccc2)no1 | inconclusive [inhibitor, full curve] | –
CCN(Cc1ccccc1)C(=O)CCc1nc(-c2ccc(C)cc2)no1 | inconclusive [inhibitor, partial curve, poor fit] | –
COc1ccc(C(=O)c2ccc(Br)cc2)c(OC)c1OC | inconclusive [inhibitor, single point] | –
Cc1occc1C(=O)N1CCCC(N2CCN(c3cccc(C(F)(F)F)c3)CC2)C1 (stereo not drawn) | inconclusive [inhibitor, partial curve, poor fit] | –
CC1CCCC(C)N1CCNC(=O)CCc1nnc2n(Cc3ccccc3)c(=O)c3ccccc3n12 (stereo not drawn) | inconclusive [inhibitor, partial curve, poor fit] | –
CCN(CC)S(=O)(=O)c1cccc(C(=O)N[C@H](C(=O)Nc2nc3ccc(F)cc3s2)C(C)C)c1 | inconclusive [inhibitor, partial curve] | –
Cc1cccc(NC(=O)CCC2CCN(C(=O)C3CC=CCC3)CC2)c1 (stereo not drawn) | inconclusive [inhibitor, single point] | –
CCOc1ccc(N(CC(=O)Nc2nccs2)S(=O)(=O)c2c(C)noc2C)cc1 | inconclusive [inhibitor, partial curve, poor fit] | –
COc1ccc(OC)c(/C=C/C(=O)N(C)CC(=O)Nc2ccc(C)cc2)c1 | – | inactive: -8.36%
CC(C)(C)CN1CCN(Cc2nc(-c3ccc(F)cc3)cs2)CC1CCO (stereo not drawn) | inconclusive [inhibitor, partial curve, poor fit] | –
Cc1cc[n+](C(C)C(=O)c2ccc(-c3ccccc3)cc2)cc1 (stereo not drawn) | inconclusive [inhibitor, full curve, poor fit] | –
CCNc1ccc(C(=O)OCC)cc1NC(=O)c1cccc(S(=O)(=O)N(C)c2ccccc2)c1 | inconclusive [inhibitor, single point] | –

Structure (SMILES) | Potency | activity change, negative = inhibition
COc1cccc(CNC(=O)c2oc3c(c2C)-c2nn(Cc4cccc(Cl)c4)cc2CC3)c1OC | inconclusive [inhibitor, partial curve] | –
COc1ccccc1C(=O)N1CCC(c2noc(-c3ccc(S(=O)(=O)N4CCCC4)cc3)n2)CC1 | inconclusive [inhibitor, partial curve, poor fit] | –
O=C(c1ccco1)N1CCN(C(=O)c2ccco2)C1=S | inconclusive [inhibitor, partial curve, poor fit] | –
CCN(Cc1ccccc1)Cc1nnnn1Cc1ccccc1 | inconclusive [inhibitor, partial curve] | –
O=C(NCCc1ccc(Cl)cc1)c1ccc(CS(=O)Cc2ccccc2Cl)o1 (stereo not drawn) | inconclusive [inhibitor, partial curve, poor fit] | –
COc1cc(SC)ccc1C(=O)Nc1ccc2c(c1)CCC2 | inconclusive [inhibitor, full curve, poor fit] | –
CC(C)CCn1c(=O)c2sccc2n2c(CCCC(=O)NCCc3ccccc3)nnc12 | – | inactive: 4.23%
CN(C)c1nc(NCc2ccccc2)nc(N/N=C/c2ccc3c(c2)OCO3)n1 | active: 10 µM | –
NS(=O)(=O)c1ccc(NC(=S)N2CCC(Cc3ccccc3)CC2)cc1 | inconclusive [inhibitor, partial curve, poor fit] | –
O=C(c1ccco1)N1CCN(c2ncnc3c2nnn3Cc2ccccc2Cl)CC1 | inconclusive [inhibitor, single point] | –
CC(C)c1ccc(N(CC(=O)NCc2ccc(F)cc2)C(=O)c2csnn2)cc1 | inconclusive [inhibitor, partial curve, poor fit] | –
CCCOC1CCCN(C(=O)c2cc(COc3c(F)cccc3F)on2)C1 (stereo not drawn) | inconclusive [inhibitor, partial curve, poor fit] | –
COc1cccc(-c2cn3nc(C)c(C)nc3n2)c1 | inconclusive [inhibitor, single point] | –
COCCNC(=O)c1c(CSc2ccc(F)cc2)noc1C(=O)NCc1ccccc1 | inconclusive [inhibitor, partial curve, poor fit] | –
CCOC(=O)c1cc(-c2cccs2)nc2onc(C)c12 | – | inactive: 2.43%
COc1ccccc1N(C)S(=O)(=O)c1ccc(C(=O)N2CCCC(C(F)(F)F)C2)cc1 (stereo not drawn) | inconclusive [inhibitor, single point] | –
CCc1cccc(OCCCCN(CC)CC)c1 | inconclusive [inhibitor, single point] | –
CC(CCc1ccccc1)NC(=O)COC(=O)c1ccc(S(C)(=O)=O)c([N+](=O)[O-])c1 (stereo not drawn) | inconclusive [inhibitor, single point] | –
C=CCOc1ccccc1CN1CCC(C(=O)Nc2cccc(-c3ccn[nH]3)c2)CC1 | active: 7.94 µM | –
O=C(N/N=C/c1cc2c3c(c1O)CCCN3CCC2)c1ccccc1O | inconclusive [inhibitor, full curve, poor fit] | –
COc1ccc(CN(C(=O)c2nsc(Cl)c2Cl)C(C(=O)NC2CCCCC2)c2ccc(OC)cc2)cc1 (stereo not drawn) | inconclusive [inhibitor, single point] | –
